Test results as given in PMC10604658.
These are yes or no findings as the source states them, for the method shown. Binding seen in cells or lysates may run through a third protein. Some entries that bind do so weakly or less than the wild type. Tags and fused reporters may be left off the sequences shown.

Tests used:
Assay in all cases: pull-down; HEK293T cells co-transfected with MYC-ETS2 (or its mutants) and SFB-DUB (or USP39 mutants); SFB protein pulled down with S-protein agarose beads from NETN lysate, overnight at 4 °C; bound MYC protein detected by anti-MYC blot
[1] = biological target: T1, SFB-USP39 ΔUSP (ubiquitin-specific protease domain-deleted, aa 1–219) (human) (UniProt Q53GS9)
T1 sequence: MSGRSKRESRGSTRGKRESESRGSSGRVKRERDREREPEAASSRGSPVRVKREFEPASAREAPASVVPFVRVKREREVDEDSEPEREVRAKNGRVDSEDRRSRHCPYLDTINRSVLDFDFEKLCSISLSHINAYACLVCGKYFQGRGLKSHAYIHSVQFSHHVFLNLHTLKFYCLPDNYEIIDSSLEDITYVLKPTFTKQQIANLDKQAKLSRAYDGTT

[2] = biological target: T2, SFB-USP39 ΔZNF (zinc finger domain-deleted, aa 1–102 & 201–565) (human) (UniProt Q53GS9)
T2 sequence: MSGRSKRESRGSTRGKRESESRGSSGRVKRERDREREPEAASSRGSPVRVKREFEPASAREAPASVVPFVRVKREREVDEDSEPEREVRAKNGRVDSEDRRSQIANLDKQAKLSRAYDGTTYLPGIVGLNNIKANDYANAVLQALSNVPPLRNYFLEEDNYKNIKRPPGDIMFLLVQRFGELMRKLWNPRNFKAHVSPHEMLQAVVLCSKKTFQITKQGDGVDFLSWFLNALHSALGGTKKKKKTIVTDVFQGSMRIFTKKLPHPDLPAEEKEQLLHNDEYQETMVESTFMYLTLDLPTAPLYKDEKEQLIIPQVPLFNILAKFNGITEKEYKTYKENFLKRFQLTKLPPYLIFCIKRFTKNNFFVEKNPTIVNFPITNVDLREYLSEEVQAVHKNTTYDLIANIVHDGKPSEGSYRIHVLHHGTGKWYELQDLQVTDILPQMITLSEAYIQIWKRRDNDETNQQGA

[3] = biological target: T3, SFB-USP39 (human) (UniProt Q53GS9)
T3 sequence: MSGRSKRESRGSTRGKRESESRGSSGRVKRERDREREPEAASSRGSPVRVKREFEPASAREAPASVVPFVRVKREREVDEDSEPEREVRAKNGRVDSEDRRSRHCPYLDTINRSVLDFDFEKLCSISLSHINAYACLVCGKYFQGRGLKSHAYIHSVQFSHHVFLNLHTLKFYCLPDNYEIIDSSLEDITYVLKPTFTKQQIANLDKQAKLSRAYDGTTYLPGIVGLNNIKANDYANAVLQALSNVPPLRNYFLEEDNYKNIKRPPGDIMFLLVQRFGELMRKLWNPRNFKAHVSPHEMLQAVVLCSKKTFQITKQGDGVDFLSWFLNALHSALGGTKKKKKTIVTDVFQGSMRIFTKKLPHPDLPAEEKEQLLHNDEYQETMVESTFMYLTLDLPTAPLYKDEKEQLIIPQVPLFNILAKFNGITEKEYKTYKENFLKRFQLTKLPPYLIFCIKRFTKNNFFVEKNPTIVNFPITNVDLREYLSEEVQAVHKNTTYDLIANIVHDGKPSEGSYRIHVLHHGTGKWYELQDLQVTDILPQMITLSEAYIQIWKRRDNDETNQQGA

[4] = biological target: T4, SFB-OTUD7A (human) (UniProt Q8TE49)
T4 sequence: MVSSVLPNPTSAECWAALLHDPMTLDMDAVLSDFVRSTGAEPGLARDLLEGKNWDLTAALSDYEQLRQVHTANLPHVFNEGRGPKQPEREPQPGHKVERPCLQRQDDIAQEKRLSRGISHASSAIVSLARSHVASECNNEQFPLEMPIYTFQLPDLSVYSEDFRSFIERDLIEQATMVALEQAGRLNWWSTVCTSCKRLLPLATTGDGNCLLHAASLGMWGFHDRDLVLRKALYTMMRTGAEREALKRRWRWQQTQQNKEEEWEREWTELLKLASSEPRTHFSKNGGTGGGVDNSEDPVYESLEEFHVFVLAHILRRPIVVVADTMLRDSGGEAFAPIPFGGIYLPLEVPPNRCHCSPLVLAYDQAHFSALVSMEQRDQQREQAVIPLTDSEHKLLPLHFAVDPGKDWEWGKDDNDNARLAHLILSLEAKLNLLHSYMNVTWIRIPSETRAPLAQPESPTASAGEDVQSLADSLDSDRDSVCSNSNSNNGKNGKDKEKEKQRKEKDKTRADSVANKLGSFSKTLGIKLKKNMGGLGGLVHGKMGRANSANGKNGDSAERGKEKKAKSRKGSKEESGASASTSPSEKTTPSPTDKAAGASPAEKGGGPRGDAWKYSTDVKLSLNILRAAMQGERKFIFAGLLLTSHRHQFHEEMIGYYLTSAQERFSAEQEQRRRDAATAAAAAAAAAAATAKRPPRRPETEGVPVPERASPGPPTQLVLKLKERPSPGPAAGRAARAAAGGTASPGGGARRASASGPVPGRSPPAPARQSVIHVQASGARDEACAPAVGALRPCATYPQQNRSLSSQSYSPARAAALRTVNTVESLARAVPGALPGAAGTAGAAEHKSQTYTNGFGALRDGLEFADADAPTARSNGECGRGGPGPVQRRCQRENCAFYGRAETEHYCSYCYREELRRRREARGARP

Measured: binding

B1: MYC-ETS2 (protein, UniProt P15036 1-469)
chain: MNDFGIKNMDQVAPVANSYRGTLKRQPAFDTFDGSLFAVFPSLNEEQTLQEVPTGLDSISHDSANCELPLLTPCSKAVMSQALKATFSGFKKEQRRLGIPKNPWLWSEQQVCQWLLWATNEFSLVNVNLQRFGMNGQMLCNLGKERFLELAPDFVGDILWEHLEQMIKENQEKTEDQYEENSHLTSVPHWINSNTLGFGTEQAPYGMQTQNYPKGGLLDSMCPASTPSVLSSEQEFQMFPKSRLSSVSVTYCSVSQDFPGSNLNLLTNNSGTPKDHDSPENGADSFESSDSLLQSWNSQSSLLDVQRVPSFESFEDDCSQSLCLNKPTMSFKDYIQERSDPVEQGKPVIPAAVLAGFTGSGPIQLWQFLLELLSDKSCQSFISWTGDGWEFKLADPDEVARRWGKRKNKPKMNYEKLSRGLRYYYDKNIIHKTSGKRYVYRFVCDLQNLLGFTPEELHAILGVQPDTED
binds: [1] | [2] | [3] | [4]
